Source: PubChem BioAssay AID1346428 (National Center for Advancing Translational Sciences (NCATS), 2018)
Hit rate of the full screen: of about 48,000 compounds, about 1,200 (2.5%) were called active. Roughly 2% stayed inconclusive and do not appear here.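 Rule for the calls: active = activation of at least 60% and not above a set upper limit (about 1 call in 100 departs from these limits); inconclusive = activation of 40% to 60%, or above that upper limit; inactive = activation under 40%.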 The list shows a part of the results.

molecular target: Probable G-protein coupled receptor 32 (Homo sapiens) (UniProt O75388); assay: qHTS for Agonists of Human Resolvin D1 Receptor DRV1; conditions: CHO-K1 GPR32 beta-arrestin PathHunter luminescence, 90 min; at 76.9 µM; active compounds read high; zero percent set by DMSO-only wells; note: 0% is about no effect
Method in brief: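 Agonism was scored by beta-Gal fragment complementation (chemiluminescent read, 1 h detection at ambient temperature) reporting beta-arrestin binding to GPR32 in engineered CHO-K1 cells. Compound treatment lasted 90 min at 37 C, normalized to a DMSO basal control.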

Sequence of UniProt O75388 (O75388 whole entry, looked up, the tested form may be a part): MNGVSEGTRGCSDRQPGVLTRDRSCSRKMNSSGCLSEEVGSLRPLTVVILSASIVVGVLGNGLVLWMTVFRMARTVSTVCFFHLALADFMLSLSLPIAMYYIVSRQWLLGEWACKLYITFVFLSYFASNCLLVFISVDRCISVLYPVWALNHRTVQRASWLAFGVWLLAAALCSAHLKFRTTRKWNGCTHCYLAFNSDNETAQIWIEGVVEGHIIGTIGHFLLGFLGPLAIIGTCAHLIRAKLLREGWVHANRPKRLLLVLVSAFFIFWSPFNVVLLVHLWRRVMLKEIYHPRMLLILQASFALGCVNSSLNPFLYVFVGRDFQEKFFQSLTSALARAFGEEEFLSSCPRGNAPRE

SMILES | activation
Cc1ccc(OCc2nnc(SCC(=O)Nc3ccccc3C(C)C)o2)cc1 | inactive: 4.31%
CSc1ccc(-c2nc3c(C)cccn3c2Nc2ccc3c(c2)OCCO3)cc1 | inactive: -20.5%
COc1cc(OC)c(NC(=O)Cn2c(=O)cc(C)c3c(C)nn(-c4ccc(C)cc4)c32)cc1Cl | inactive: -6.4%
CCOC(=O)c1cc(C)n(CC2CCC(C(=O)Nc3ccc(C)cc3)CC2)c1C (centres undefined) | inactive: -7.72%
CCc1ccc(NC(=O)c2ccc3nc(C(C)C)oc3c2)cc1 | inactive: 21.8%
CCNC(=O)c1ccc(CSc2nc3cccnc3n2Cc2ccc(OC)cc2)cc1 | inactive: 4.87%
CCOC(=O)N1CCC2(CC1)OC(=O)C(C)=C2C(=O)NCc1ccc(C)cc1 | inactive: -3.91%
COC(=O)Cn1ccc2cc(S(=O)(=O)N3CCCCCC3)ccc21 | inactive: 19.1%
CCC1CCc2nc3sc(C(=O)Nc4ccc(C)cc4C)c(N)c3cc2C1 (centres undefined) | active: 68.6%
CCN(C(=O)CN1C(=O)COc2ccc(S(=O)(=O)N3CCOCC3)cc21)c1cccc(C)c1 | inactive: -5.54%
Cc1cccc(-c2nc(CN3CCCC(C(=O)NCc4ccc(Cl)cc4)C3)c(C)o2)c1 (centres undefined) | inactive: 14.7%
Cc1nn(CC(=O)N2CCC(C)CC2)c(=O)c2cc3occc3n12 | inactive: -9.46%
CCc1nn(-c2ccccc2)c2nc(-c3ccc(O)cc3)c3cc(OC)c(OC)cc3c12 | inactive: 14.5%
CCCc1cnc2c(c1SCC(=O)Nc1c(C)cc(C)cc1C)c(=O)n(C)c(=O)n2C | inactive: 4.99%
COC(=O)c1ccc(NC(=O)Cn2c(-c3nonc3N)nc3ccccc32)cc1 | inactive: -3.17%
Cc1ccc(Cn2c(CCCNC(=O)c3ccco3)nc3ccccc32)cc1 | inactive: 23.8%
Cc1ccc(CNC(=O)CCCN2C(=O)CCn3nc(-c4cn(C)c5ccccc45)cc32)cc1 | inactive: 16.2%
Cc1nc2c(-c3ccccc3)c(C)nn2c(C)c1CCC(=O)NCc1ccc(Cl)cc1 | inactive: -8.01%
COc1ccc(CCNS(=O)(=O)c2ccc(N3CCCCS3(=O)=O)cc2)cc1OC | inactive: 17.3%
CCOC(=O)c1ccc(NC(=O)c2nc(SC(C)C)ncc2Cl)cc1 | inactive: -5.39%
CCOC(=O)c1nnn(CC(=O)Nc2cc(C)cc(C)c2)c1C(=O)OCC | inactive: -7.28%

SMILES | activation
COc1ccccc1CNC(=O)c1cc2cccc3c2n1CC(C)S3 (centres undefined) | inactive: -27%
CS(=O)(=O)N(CC(=O)NCCSCc1ccccc1)c1cc(C(F)(F)F)ccc1Cl | inactive: -9.36%
O=C(Cn1cnc2onc(-c3ccc(F)cc3)c2c1=O)Nc1cccc(C(F)(F)F)c1 | inactive: 44.7%
COc1ccc(NC(=O)CC2C(=O)N(c3ccccc3)C(=O)N2C2CCCCC2)cc1 (centres undefined) | inactive: -10.7%
Cc1ccc(C)c(Cn2cnc3c(cnn3-c3ccc(F)cc3)c2=O)c1 | inactive: -14.3%
CCN(Cc1ccccc1)S(=O)(=O)c1ccc2c(c1)CCCN2C(C)=O | inactive: 40.7%
CCc1ccc(NC(=O)N2c3ccccc3Sc3ccccc32)cc1 | inactive: -17.3%
COc1ccc(/C(C)=C/C(=O)O)c(OC)c1 | inactive: -6.13%
Cc1cc(-c2ccccc2)n2nc(-c3cccc(Br)c3)cc2n1 | inactive: -8.13%
CC1CCN(C(=O)CN2c3ccc(C(C)C)cc3-c3ccccc3S2(=O)=O)CC1 | inactive: -16.6%
Cn1nc(C(=O)NCc2ccc(F)cc2)c2c1-c1ccccc1SC2 | inactive: -14.3%
Cc1ccc(-c2c(C(=O)NCc3ccc(F)cc3)oc(=O)c3ccccc23)cc1 | inactive: 21.6%
CC(C)CN(CCNC(=O)c1cn(C)c2ccc(S(=O)(=O)N3CCOCC3)cc2c1=O)CC(C)C | inactive: 1.02%
CC(=O)c1cccc(NC(=O)c2oc(=O)c3ccccc3c2-c2ccccc2)c1 | inactive: 9.2%
Cc1ccccc1NC(=O)Cn1c(=O)n(Cc2ccc3c(c2)OCO3)c(=O)c2ccc(C(=O)NC3CCCCC3)cc21 | inactive: -14.9%
COc1ccc(CCCc2nnc(SCC(=O)Nc3ccc(F)cc3)o2)cc1C | inactive: 5.33%
Cc1ccc2cccc(NC(=O)c3ccc(-c4cccc(Cl)c4Cl)o3)c2n1 | inactive: -1.92%
CSCCC(NS(=O)(=O)c1ccc2c(c1)oc(=O)n2C)C(=O)NCc1ccccc1 (centres undefined) | inactive: 13.3%
COc1ccc(/C=C/c2nc(C#N)c(N3CCCCCC3)o2)cc1OC | inactive: -22%
O=C(Cn1cc(S(=O)(=O)c2ccc(Cl)cc2)c(=O)c2ccccc21)Nc1ccc2c(c1)OCO2 | inactive: -0.847%
Cc1ccc(C)c(NC(=O)CSc2ncc3c(n2)-c2ccccc2N(Cc2ccccc2C)S3(=O)=O)c1 | inactive: -17.7%

SMILES | activation
Fc1ccc([C@@H]2Nc3ccccc3[C@@H]3C=CC[C@@H]32)cc1 | inactive: -11.1%
COc1ccc(C)cc1NS(=O)(=O)c1ccc(-c2cnc(C3CC3)o2)cc1 | inactive: 0%
Cc1ccc(C)c(Nc2ncnc3c2cnn3-c2ccc(F)cc2)c1 | inactive: 44.7%
Cc1ccc(C)c(S(=O)(=O)Nc2ccc3c(c2)CCCN3C(=O)c2cccs2)c1 | inactive: -11.1%
COc1ccc(CNS(=O)(=O)c2ccc3c(c2)NC(=O)C(C)C(=O)N3)cc1 (centres undefined) | inactive: -10.4%
Cc1nnc(N2CCC(C(=O)N3CCCCC3)CC2)c2nn(-c3ccccc3)c(C)c12 | inactive: -3.18%
COc1cc(NC(=O)Cn2c(=O)n(Cc3ccccc3Cl)c(=O)c3cc(OC)c(OC)cc32)cc(OC)c1 | inactive: 4.47%
O=C(NCCc1ccccc1)c1cc(-c2cccc(Cl)c2)on1 | inactive: 8.5%
CCc1ccc(Nc2ncnc3sc4c(c23)CCCC4)cc1 | inactive: -1.69%
COc1ccc(CNc2n[nH]c(-c3ccco3)n2)cc1OC | inactive: -0.448%
COc1ccc(CCN2C(=O)N(c3ccc(F)cc3)C(=O)C2CC(=O)Nc2ccccc2)cc1OC (centres undefined) | inactive: 10.7%
CCCc1c(C(=O)OCC)nnc2c(-c3ccccc3)c(C)nn12 | inactive: -6.44%
CCCN(C(=O)c1cc2c(=O)n(CC)c3ccccc3c2s1)c1ccccc1F | inactive: 15.8%
COc1cc(NC(=O)c2cc3nc(-c4ccc(C)cc4)cc(C(F)(F)F)n3n2)cc(OC)c1OC | inactive: -0.0645%
O=C(c1ccc(Nc2nc3ccccc3n3nnnc23)cc1)N1CCN(c2ccc(F)cc2)CC1 | inactive: -11.8%
COc1ccc(C2c3c(n(C)c4ccccc34)C(=O)N2CC(=O)Nc2ccccc2Cl)cc1 (centres undefined) | inactive: -22.2%
CCc1ccc(NC(=O)c2cc(S(=O)(=O)N3CCCCC3)c[nH]2)cc1 | inactive: 16.2%
COc1ccc(CCNC(=O)c2cnc3sc(N4CCOCC4)nn3c2=O)cc1OC | inactive: 14%
O=S(=O)(Nc1ccc(F)cc1F)c1ccc(Br)s1 | inactive: 25.1%
Cc1ccc(CNC(=O)c2nnn(Cc3ccc(F)cc3)c2N)cc1 | inactive: -11.8%
COc1ccc(OCc2ccc(-c3nc(C#N)c(N4CCC(C(N)=O)CC4)o3)o2)cc1 | inactive: -6.31%

SMILES | activation
CC(=O)c1cccc(NC(=O)Cn2c(=O)oc3cc(S(=O)(=O)NCc4ccccc4)ccc32)c1 | inactive: -3.24%
CCn1c2c(c(=O)n3ncc(C(=O)Nc4ccc(OC(F)(F)F)cc4)c13)CN(Cc1ccc(OC)cc1)CC2 | inactive: -13.2%
COc1ccc(CCNC(=O)c2c[nH]n3c(=O)c(Cc4ccccc4Cl)c(C)nc23)cc1OC | inactive: 22%
O=C(Nc1cc(-c2nc3cc(Cl)ccc3o2)ccc1Cl)c1cccc2ccccc12 | inactive: -1.25%
COc1ccccc1Nc1c2c(nc3ccc(NC(=O)/C=C/c4cc(OC)c(OC)c(OC)c4)cc13)CCCC2 | inactive: 33%
CCCCCc1ccc(-c2ccc(C(=O)Oc3ccc(C(=O)OC)cc3)cc2)nc1 | inactive: 21.8%
CC(C)c1ccc(NC(=O)C2Cc3ccccc3N2C(=O)c2ccccc2)cc1 (centres undefined) | inactive: -20%
COc1ccc(CNc2nc(-c3ccc(Cl)cc3)nn2C(=O)c2ccccc2)cc1 | inactive: 5.45%
COc1ccccc1CNC(=O)c1ccc(CSc2nc3ccncc3n2Cc2ccccc2C)cc1 | inactive: -6.35%
Cc1ccc(S(=O)(=O)C2(C(=O)Nc3ccc(C(C)C)cc3)CC2)cc1 | inactive: -18.6%
Cc1ccc(-n2ncc(C(=O)N3CCN(c4ncccn4)CC3)c2C2CCN(C(=O)OC(C)(C)C)CC2)cc1 | inactive: 2.45%
Cc1cc(C)cc(N2C(=O)CS(=O)(=O)C23C(=O)N(C)c2ccccc23)c1 (centres undefined) | inactive: 17.5%
CCN(CC)C(=O)CSc1cn(CC(=O)N2CCCCCC2)c2ccccc12 | inactive: -8.97%
Cc1ccc(NC(=O)C2CCN(c3nc4ccccc4nc3C(F)(F)F)CC2)cc1C | inactive: 0%
CCn1c2ccccc2c2nnc(N3CCN(c4ccc(OC)cc4)CC3)nc21 | inactive: -13.1%
COc1ccc(-c2cc(C(F)(F)F)nc(SCCC(=O)Nc3ccc(O)cc3)n2)cc1 | active: 86.2%
CCOC(=O)Cn1nc(C)c(NC(=O)COc2ccc(C)c(C)c2)c1C | inactive: 29.5%
CCCN(CCC)S(=O)(=O)c1ccc(N2CCCCS2(=O)=O)cc1 | inactive: -27%
CCOc1ccc(-n2cc(-c3ccccc3)c3c(NCc4ccc(F)cc4)ncnc32)cc1 | inactive: -30.7%
CCSc1nc2c([nH]c3ccccc32)c(=O)n1-c1cccc(OC)c1 | inactive: 26.9%
CCOc1ccc(-n2nc3ccc(NC(=O)c4cccc(F)c4)cc3n2)cc1 | inactive: -6.09%
